The values below come from the RNAGym collection of RNA variant scans (doi:10.1093/nar/gkz1192).

The source gives no read counts; variants with many changes may rest on few reads.

B1: CPEB3 Ribozyme (parent)
chain: UAACAGGGGGCCACAGCAGAAGCGUUCACGUCGCAGCCCCUGUCAGAUUCUGGUGAAUCUGCGAAUUCUGCUGUAUAUCUC

In this series the parent is B1. Description: self-cleavage, relative activity (ratio to wild type); higher = more cleavage; in vitro, sequencing. An outline of the steps: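 Relative activity compares each variant's cleaved/total read fraction with that of the unmutated ribozyme. To get these fractions, barcoded CPEB3 ribozyme libraries from rounds of error-prone PCR were transcribed with T7 RNA polymerase for 5 hours at 37°C and then given 15 min of DNase I treatment before EDTA was added. The RNAs were reverse transcribed with template switching and sequenced on Illumina, and DNA sequencing linked barcodes to variants. A minimum of 5 reads applied, and three batches were averaged.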
In the case of UAGCAGGGGGCCACUGCAGAAGCGUUCUCGUCGCAGCCCCUGUCAGAUUCUGGUGAAUCUGCGAAUUCUGCUGUAUAUCUU, the self-cleavage came out at 1.24.
Take UAGCAGGGGGCCACAGCAGAUGCGUUCACGUCGCAGCCCCUGUCAGAUACUGGUGAAUCUGCGAAUUCUGCUGUAUAUCUC: the self-cleavage turned out to be 0.58.
To UAGCAGGGGGCCACAGCCGAAGCGUUCACGUCGCAGCCCCUGUCAGAUUCUGGUGAAUCUGCGAGUCCUGCUGUAUAUCUC belongs 0.38; to UAGCAGGGGGCCACAGCAGUAGCGUUCACGUCGCAGCCCCUGUCAGAUUCUGGUGAAUCUGCGAACUCUGCUGUAUAUCUC, 0.34.
Regarding UAGCAGGGGGCCACUGCAGAGGCGUCCACGUCGCAGUCCCUGUCAGAUUCUGGCGAAUCUGCGAAUUCUGCUGUAUAUCUC, the self-cleavage was 0.13.
The value for UAGCAGGGGGCCACAGCAGUAGCGUUCACGCCGCAGCCCCUGACAGAUUCAGGUGAAUCUGCGAAAUCUGCUGUAUAUCUC was 0.18; that for UAGCAGGGGGCCACAGCAGAGGCGUUCACGCCGCAGCCCCUGUCAGAUUCUGGUGAAUCUGCGAAUUCUGCUGUAUAUCUC was 0.26; that for UAGCAGGGGGCCACAGCAGAGGCGUUCACGUCGCAGCCCCUGCCAGAUACUGGCGAGUCUGCGAAUUCUGCUGUAUAUCUC was 0.47.
The value for UAGCAGGGGGCCACAGCGGAAGCGUUCACGUCGCAGCCCCUGUCAGAUUCUGGUGAAUCCGCGAAUUCUGCUGUAUAUCUC was 0.32; that for UAGCAGGGGGCCACAGCAGGAGCGUUCACGUCGCAGCCCCUGUCAGAUCCUGGUGAAUCUGCGAAUUCUACUGGAUAUCUC was 0.1; that for UAGCAGGGGGCCACAGCUGAAGCGUUCACGUCGCAGCCCCUGUCGGAUUCGUGUGAGUCUGCGAAUUCUGCUGUAUAUCUC was 0.08.
As to UAGCAGGGGGCCACAGCGGAAGCGUUCACGCCGCAGCCCCUGUCAGAUUCUGGUGAAUCUGCGAAUUCUGCUGUAUAUCUC, the self-cleavage was determined as 0.55.
UAGCAGGGGGCCACAGCAGUAGCGUUCACGUCGCAGCCCCUGCCAGAUUCUGGUGAAUCCGCGAAUUCUGCUGUAUAUCUC: the self-cleavage came to 0.09.
As to UAGCAGGGGGCCACAGCAGGAGCGUUCACGACGCAGCCCCUGGCAGAUUCUGGUGAAUCUGCGAAUUCUGCUGUAUAACUC, the self-cleavage turned out to be 0.53.
The value for UAGCAGGGGGCCACAGCUGAAGCGUUCACGACGCAGCCCCUGUCAGAUUCUGGUGAAUCUGCGAAUUCUGCUGUUUAUCUC was 0.53; that for UAGCAGGGGGCCACAGCAGGAGCGCUCACGCCGCAGCCCCUGUCAGAUACUGGUGAAUCUGCGAACUCUGCUGUAUAUCUC was 0.04; that for UAGCAGGGGGCCACAGCAGGAGCGUUCACGUCGCAGCCCCCGCCAGACUCUGGUGAAUCUGCGAUUUCUGCUGUAUAUCUC was 0.
UAGCAGGGGGCCACAGCAGUAGCGUUCACGUCGCAGCCCCUGUCAGAUUCUGGUGAAUCUGCGAAUUCUGCUGUAUGUCAC: the self-cleavage came to 0.54.
The value for UAGCAGGGGGCCACAGCUGAAGCGUUCACGUCGCGGCCCCUGUCUGAUUCUGGUGAAUCUGCGAAUUCUGCUGUAUAUCUC was 0.3.
The value for UAGCAGGGGGCCACAGCAGAUGCGUUCACGUCGCAGCCCCUGUCGGAUUCUGGUGAAUCUGCGAAUUCUGCCGUAUAACUC was 0.39; that for UAGCAGGGGGCCACUGCAGGAGCGUACACGUCACAGCCCCUGUCAGAUUCUGGCGAAUCUGCGAAUUCAGCUGUAUAUCUC was 0.17; that for UAGCAGGGGGCCACAGCUGGAGCCUUCACGUCGCAGCCCCUGUCAGAUUCUGGUGAAUCUGCGAAUUCUGCUGUAUAUCCC was 0.17.
The value for UAGCAGGGGGCCACAGCGGAAGCGUUCACGUCGCAGCCCCUGUCAGAUUCCGGUGAAUCUGCGAAUACUGCUGUAUAUCUC was 0.38; that for UAGCAGGGGGCCACAGCAGGAGCGUUCACGUCGCAGCCCCGGUCAGAUUCUGGUGAAACUGCGAAUUCUGCUGUAUAUCUC was 0.38.
UAGCAGGGGGCCACUGCAGAAGCGUUCACGUCGCAGCCCCUGCCAGAUUCUGGUGAAUCUGUGAAUUCUGCCGUGUAUCUC: the self-cleavage came out at 0.07.
The value for UAGCAGGGGGCCACAGCAGACGUGUUCACGUCGCAGCCCCUGUCAGAUUCUGGUGAAUCUGCGAAUUCUGCUGUAUAUCUC was 0.34.
The value for UAGCAGGGGGCCACUGCAGAAGCGUUCACGUCGCAGCCCCUGCCAGAUUCUGGUGGAUCCGCGAAUUCUGCUGUAUAUCUC was 0.18.
To UAGCAGGGGGCCACAGCGGGAGCGUUCACGUCGCAGCCCCUGUCAGAUUCUGGUGAAUCAGCGAAUUCUGCUGUAUAUCUC belongs 0.46.
For UAGCAGGGGGCCACAGCUGAUGCGUUCACGUCGCAGCCCCUAUCAGAUUCUGGUGAAUCUACGAAUUCUGCUGUAUAUCUC, the self-cleavage came out at 0.06.
To UAGCAGGGGGCCACAGCAGAGGCGUUCACGUCGCAGCCCCAGUCAGAUUCUGGUGAAUCCGCGAAUUCUGCUGUAUAUCUC belongs 0.38.
Turning to UAGCAGGGGGCCACAGCAGAGGCGUACACGUCGCAGCCCGUGUCAGAUUCUGGUGAGUCUGCGAAUUCUGCUGUAUGUCUC, the self-cleavage worked out at 0.33.
The value for UAGCAGGGGGCCACAGCAGUAGCGUUCACGUCGCAGCCCCAGUCUGAUUCUGGGGAAUCUGGGAAUUCUGCUGUAUAUCUC was 0.04; that for UAGCAGGGGGCCACAGCAGGAGCGCUCACGUCGCAGCCCCUGUCAGAUUCUGGUGAAUCUGCGAAUUCUGCCGUAUAUCUC was 0.11.
Consider UAGCAGGGGGCCACAGCAGAGGCGUUCACGUCGCAGCCCCUGUCAGAUUCUGGUGAAUCUGCGAAUUCUGCUGUACAUCUC, for which the self-cleavage worked out at 0.83.
